Results are given in words; binding and its absence hold for the method and conditions named. In cells and extracts the contact can be indirect. Some results given as binding are weak or reduced against the parent protein; the word gives no strength. For part of these data: Tags and fused reporters may be left off the sequences shown.

The chains behind the UniProt entries cited, without tags or fusion partners. Where a name states a change or a piece, a line headed by the entry shows the natural chain unless it says otherwise. A line that says so, or that is headed by a name, gives the form on record, which may keep a tag or linker.
UniProt O55143: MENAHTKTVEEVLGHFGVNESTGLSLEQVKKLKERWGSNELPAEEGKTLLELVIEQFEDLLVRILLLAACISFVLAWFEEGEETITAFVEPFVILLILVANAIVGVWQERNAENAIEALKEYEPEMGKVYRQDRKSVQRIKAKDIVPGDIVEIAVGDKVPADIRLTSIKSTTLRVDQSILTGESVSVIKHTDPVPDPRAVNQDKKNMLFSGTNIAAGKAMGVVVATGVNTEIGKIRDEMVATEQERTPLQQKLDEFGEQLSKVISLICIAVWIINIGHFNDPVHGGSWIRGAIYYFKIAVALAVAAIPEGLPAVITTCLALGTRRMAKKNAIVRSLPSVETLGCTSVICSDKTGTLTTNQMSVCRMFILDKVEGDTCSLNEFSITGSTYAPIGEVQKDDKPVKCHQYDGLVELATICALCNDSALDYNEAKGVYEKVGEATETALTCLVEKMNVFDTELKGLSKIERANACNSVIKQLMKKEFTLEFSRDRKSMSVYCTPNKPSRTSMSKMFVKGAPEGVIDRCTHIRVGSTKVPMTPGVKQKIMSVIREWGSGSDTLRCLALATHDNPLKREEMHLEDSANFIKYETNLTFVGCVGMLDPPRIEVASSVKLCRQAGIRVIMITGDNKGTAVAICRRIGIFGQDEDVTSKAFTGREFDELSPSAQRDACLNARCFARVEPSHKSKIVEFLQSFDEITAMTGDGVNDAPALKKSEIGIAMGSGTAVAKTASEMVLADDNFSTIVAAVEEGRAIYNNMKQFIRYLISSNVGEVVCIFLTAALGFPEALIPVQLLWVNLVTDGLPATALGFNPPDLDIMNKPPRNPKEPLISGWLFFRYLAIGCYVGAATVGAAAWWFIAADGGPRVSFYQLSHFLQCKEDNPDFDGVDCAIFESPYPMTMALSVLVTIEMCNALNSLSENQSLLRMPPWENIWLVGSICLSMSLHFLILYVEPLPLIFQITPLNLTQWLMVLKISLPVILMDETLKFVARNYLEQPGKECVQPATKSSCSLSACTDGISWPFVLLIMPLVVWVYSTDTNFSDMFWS
UniProt O14983: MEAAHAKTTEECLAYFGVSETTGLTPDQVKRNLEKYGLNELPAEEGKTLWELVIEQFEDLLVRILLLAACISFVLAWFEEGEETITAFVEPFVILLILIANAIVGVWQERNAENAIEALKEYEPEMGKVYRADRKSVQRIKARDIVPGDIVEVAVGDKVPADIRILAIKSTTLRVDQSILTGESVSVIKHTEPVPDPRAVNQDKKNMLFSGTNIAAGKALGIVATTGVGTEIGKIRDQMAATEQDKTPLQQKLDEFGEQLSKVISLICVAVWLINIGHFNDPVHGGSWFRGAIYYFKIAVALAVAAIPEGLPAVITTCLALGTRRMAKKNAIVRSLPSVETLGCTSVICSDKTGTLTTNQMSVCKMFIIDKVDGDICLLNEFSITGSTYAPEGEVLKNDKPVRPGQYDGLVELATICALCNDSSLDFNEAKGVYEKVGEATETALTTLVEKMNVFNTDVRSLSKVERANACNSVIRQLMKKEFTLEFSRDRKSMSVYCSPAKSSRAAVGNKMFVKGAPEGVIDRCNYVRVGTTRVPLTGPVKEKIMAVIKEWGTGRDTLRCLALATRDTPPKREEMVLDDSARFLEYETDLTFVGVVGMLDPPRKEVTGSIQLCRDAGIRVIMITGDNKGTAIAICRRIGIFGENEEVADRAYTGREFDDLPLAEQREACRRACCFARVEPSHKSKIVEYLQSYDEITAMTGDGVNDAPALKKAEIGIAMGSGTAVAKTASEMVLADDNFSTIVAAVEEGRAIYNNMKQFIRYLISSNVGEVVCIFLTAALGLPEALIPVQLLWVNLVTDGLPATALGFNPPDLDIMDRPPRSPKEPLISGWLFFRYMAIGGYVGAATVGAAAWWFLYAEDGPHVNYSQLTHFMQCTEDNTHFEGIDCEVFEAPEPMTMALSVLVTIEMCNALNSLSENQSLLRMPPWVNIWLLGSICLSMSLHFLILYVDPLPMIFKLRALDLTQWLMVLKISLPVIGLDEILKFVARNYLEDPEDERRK
UniProt Q93084: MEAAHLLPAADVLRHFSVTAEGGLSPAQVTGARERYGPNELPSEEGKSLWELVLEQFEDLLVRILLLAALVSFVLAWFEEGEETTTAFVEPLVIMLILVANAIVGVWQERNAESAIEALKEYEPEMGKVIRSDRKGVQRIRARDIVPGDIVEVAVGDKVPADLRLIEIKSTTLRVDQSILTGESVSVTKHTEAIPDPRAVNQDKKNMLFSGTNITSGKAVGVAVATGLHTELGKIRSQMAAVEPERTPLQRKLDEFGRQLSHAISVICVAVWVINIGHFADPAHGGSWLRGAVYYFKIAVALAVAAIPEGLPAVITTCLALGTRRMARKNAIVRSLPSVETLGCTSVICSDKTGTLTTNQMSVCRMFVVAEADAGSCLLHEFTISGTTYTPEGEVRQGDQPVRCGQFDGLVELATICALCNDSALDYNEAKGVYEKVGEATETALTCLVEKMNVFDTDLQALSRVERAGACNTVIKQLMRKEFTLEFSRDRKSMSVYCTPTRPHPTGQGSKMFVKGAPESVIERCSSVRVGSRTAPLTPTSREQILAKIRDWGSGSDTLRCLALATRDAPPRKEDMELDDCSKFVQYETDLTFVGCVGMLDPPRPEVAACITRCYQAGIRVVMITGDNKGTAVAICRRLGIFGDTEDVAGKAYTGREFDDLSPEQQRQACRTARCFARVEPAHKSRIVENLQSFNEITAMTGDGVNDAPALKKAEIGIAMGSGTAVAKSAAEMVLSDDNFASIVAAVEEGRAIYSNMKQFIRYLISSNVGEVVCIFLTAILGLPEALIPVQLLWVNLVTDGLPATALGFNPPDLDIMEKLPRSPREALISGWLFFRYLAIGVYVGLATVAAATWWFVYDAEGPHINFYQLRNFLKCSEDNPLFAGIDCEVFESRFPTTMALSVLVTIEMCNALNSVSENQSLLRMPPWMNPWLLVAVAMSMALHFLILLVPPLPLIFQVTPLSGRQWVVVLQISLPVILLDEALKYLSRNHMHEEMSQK
SERCA2a (P16615-2, form named): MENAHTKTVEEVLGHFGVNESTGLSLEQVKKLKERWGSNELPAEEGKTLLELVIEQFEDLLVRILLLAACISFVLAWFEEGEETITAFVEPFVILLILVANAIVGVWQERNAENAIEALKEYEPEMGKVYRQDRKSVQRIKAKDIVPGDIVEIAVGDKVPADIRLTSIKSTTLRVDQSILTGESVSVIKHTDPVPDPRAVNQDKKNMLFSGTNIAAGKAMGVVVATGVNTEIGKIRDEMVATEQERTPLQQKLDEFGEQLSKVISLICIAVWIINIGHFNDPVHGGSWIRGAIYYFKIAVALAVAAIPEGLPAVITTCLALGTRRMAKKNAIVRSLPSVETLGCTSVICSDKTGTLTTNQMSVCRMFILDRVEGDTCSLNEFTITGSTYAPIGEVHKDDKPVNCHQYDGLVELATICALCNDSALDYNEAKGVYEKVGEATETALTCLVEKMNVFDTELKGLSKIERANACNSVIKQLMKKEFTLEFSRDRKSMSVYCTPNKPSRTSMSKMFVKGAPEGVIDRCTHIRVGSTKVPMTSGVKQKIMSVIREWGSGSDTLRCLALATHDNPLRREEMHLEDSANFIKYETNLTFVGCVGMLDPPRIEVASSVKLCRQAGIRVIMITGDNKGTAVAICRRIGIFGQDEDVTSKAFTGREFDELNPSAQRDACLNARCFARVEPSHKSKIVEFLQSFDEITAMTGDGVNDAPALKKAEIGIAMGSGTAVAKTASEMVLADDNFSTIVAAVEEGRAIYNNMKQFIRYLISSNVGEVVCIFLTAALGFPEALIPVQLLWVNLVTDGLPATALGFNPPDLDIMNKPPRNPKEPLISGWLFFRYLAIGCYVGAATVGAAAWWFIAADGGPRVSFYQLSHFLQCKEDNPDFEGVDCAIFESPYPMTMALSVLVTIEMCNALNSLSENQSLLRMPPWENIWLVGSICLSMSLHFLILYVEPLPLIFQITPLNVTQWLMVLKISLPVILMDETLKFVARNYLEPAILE

The target in test [1] is Piezo1-GST fusion protein (mouse Piezo1) (mouse) (UniProt E2JF22). The experiment in a line: pull-down; Supplementary Fig. 1 (not shown); told as 'similarly' to the GST pull-down from co-transfected HEK293T cells.
For test [2], the target named is endogenously expressed SERCA2 in Neuro2A (N2A) cells (mouse (endogenous in N2A)) (UniProt O55143). Put plainly: co-IP; N2A lysate (10 mM Tris-HCl pH 7.5, 150 mM NaCl, 1 mM EDTA, 1% Triton X-100, 0.5% NP-40); protein G magnetic beads with anti-SERCA2 or IgG, 4 °C overnight; blot with Piezo1 antibody; control or Piezo1 shRNA.
Test [3] has as its target Piezo1-GST fusion protein (mouse Piezo1) (mouse) (UniProt E2JF22). Put plainly: pull-down; Piezo1-GST pull-down of co-expressed Flag-SERCA2 from HEK293T lysates with linker-peptide or scrambled-peptide added to the lysates at 200 μM, overnight.
For test [4], the target named is T1, GST-fused C-terminal fragment of Piezo1 (1960–2547) (mouse) (UniProt E2JF22).
T1 sequence: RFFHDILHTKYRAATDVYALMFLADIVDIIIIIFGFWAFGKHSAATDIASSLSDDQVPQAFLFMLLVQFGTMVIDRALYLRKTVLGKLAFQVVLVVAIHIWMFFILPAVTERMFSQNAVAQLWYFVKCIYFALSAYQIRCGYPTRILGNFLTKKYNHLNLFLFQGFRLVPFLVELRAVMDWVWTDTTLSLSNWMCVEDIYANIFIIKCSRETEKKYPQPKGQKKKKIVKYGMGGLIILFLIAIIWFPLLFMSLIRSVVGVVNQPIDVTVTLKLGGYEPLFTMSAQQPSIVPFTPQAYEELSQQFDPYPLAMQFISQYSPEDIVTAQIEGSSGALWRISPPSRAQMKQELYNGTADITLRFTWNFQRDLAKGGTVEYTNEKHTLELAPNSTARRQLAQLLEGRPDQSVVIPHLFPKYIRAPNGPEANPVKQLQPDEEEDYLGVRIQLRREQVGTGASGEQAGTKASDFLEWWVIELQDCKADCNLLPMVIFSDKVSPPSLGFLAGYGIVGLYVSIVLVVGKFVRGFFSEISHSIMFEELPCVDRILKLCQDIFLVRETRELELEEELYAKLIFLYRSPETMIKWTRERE
The experiment in a line: pull-down; GST pull-down from lysates of HEK293T cells co-transfected with GST-fused bait and Flag-SERCA2; glutathione magnetic beads, 4 °C overnight; 25 mM NaPIPES, 140 mM NaCl, 1% CHAPS, 0.5% PC, 2.5 mM DTT; western blotting. For orientation: A western blot detects proteins with antibodies after separation by electrophoresis.

The target in test [5] is T2, GST-fused N-terminal fragment of Piezo1 (1–730) (mouse) (UniProt E2JF22).
T2 sequence: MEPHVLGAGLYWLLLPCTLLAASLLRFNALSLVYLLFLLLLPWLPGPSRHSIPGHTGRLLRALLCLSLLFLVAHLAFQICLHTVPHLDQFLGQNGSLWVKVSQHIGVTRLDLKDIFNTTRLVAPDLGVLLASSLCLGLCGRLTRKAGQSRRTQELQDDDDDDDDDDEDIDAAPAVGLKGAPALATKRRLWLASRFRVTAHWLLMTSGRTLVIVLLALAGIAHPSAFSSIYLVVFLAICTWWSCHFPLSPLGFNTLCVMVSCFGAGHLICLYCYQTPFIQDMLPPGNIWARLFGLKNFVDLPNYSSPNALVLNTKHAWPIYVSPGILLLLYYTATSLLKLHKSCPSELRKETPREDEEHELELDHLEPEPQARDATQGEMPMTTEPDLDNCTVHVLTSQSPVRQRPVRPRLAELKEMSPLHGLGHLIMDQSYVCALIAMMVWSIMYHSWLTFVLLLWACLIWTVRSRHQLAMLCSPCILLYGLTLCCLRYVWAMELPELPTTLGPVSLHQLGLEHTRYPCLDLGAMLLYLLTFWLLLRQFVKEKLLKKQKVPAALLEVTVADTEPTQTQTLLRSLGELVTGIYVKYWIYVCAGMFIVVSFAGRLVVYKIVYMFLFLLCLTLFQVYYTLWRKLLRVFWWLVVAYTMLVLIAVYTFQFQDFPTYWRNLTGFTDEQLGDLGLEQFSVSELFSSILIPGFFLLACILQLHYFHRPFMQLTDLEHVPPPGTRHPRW
The description is as above.

Test [6] deals with T3, GST-fused Piezo1 fragment 1960–2483 (without CTD) (mouse) (UniProt E2JF22).
T3 sequence: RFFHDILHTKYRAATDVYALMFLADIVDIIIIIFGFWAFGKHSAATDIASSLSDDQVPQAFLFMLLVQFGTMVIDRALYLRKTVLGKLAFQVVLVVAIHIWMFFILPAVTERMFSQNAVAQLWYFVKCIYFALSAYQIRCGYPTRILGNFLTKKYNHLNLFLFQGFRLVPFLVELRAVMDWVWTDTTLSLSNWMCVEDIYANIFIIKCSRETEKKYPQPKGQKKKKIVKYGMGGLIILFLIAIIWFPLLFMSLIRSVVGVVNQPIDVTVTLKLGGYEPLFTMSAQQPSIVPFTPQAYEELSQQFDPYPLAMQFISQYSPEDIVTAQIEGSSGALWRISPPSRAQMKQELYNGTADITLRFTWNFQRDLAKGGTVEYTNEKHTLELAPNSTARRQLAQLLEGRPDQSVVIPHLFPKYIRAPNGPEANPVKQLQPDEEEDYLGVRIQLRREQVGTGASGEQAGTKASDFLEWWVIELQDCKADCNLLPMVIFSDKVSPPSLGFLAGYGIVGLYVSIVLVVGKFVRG
Described as above.

The target in test [7] is T4, GST-fused Piezo1 fragment 2171–2483 (without CTD) (mouse) (UniProt E2JF22).
T4 sequence: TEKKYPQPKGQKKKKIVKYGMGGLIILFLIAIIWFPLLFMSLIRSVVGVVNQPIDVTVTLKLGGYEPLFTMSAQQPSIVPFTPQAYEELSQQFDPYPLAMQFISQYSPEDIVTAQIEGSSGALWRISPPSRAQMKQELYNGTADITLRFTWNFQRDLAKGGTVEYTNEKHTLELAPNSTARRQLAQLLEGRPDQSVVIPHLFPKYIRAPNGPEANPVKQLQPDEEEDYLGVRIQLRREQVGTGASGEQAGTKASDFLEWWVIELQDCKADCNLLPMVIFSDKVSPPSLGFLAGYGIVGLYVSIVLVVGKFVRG
The description is as above.

In test [8] the target is T5, GST-fused Piezo1 fragment 2171–2547 (with CTD) (mouse) (UniProt E2JF22).
T5 sequence: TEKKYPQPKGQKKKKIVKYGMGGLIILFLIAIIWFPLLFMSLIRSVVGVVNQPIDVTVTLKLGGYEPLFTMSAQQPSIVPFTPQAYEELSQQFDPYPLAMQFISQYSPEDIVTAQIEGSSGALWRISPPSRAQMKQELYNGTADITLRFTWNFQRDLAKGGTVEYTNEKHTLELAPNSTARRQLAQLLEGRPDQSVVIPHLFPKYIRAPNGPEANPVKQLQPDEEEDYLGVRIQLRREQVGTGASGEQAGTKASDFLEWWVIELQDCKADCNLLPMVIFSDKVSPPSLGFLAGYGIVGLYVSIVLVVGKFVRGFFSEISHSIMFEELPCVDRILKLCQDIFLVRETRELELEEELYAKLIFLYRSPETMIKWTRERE
The description is as above.

In test [9] the target is T6, GST-fused predicted intracellular fragment of the central region of Piezo1 (1367–1652) (mouse) (UniProt E2JF22).
T6 sequence: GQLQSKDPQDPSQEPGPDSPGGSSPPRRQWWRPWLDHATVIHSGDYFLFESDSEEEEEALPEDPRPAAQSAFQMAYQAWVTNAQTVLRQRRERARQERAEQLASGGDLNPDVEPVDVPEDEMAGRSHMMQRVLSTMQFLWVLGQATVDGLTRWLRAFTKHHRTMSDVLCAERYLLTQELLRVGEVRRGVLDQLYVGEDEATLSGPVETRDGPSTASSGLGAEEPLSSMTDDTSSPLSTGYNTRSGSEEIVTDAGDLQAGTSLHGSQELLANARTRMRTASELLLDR
The description is as above.

In test [10] the target is Piezo1-GST fusion protein (mouse Piezo1) (mouse) (UniProt E2JF22). The test is described as above.

As to SERCA1 (from UniProt O14983 1-1001), in test [1], the binding result is “binds”.
SERCA3 (from UniProt Q93084 1-999): the binding result in test [1] is reported as “binds”.
With “endogenously expressed Piezo1 in Neuro2A (N2A) cells (from UniProt E2JF22 1-2547)”, the binding entry in test [2] is reported as “binds”.
In the case of “Flag-tagged SERCA2 (SERCA2b) (from UniProt P16615-1 1-1042)”, the binding entry in [3] was “binds”; in test [4] it was “binds”; in test [5], “no binding”; in test [6], “binds”; in test [7], “binds”; in [8] it was “binds”. In addition, the binding entry in [9] is listed as “no binding”; in test [10], “binds”.
Take SERCA2a (from UniProt P16615-2 1-997): in [1], the binding entry was “binds”.

These data come from publication PMC5702604.
